Test results reported in article PMC12434519 (ACS Medicinal Chemistry Letters, 2025).

Tests used:
SARS-CoV-2 NSP14 [1] = target: T1, SARS-CoV-2 NSP14 (Severe acute respiratory syndrome coronavirus 2, UniProt P0DTD1); assay: biochemical; conditions: for NSP14 SARS COV2 : Hill slope: Sheet2
SARS-CoV-2 NSP14 [2] = target: T1, SARS-CoV-2 NSP14; conditions: for ∆TM (°C) / Average Tm NSP14 (ºC) + compound + SAH: HTS hits; for Average Tm NSP14 (ºC) + compound + SAH: NSP14 + SAH 48.0
[3] = 0.75 h, read-out: NSP14 SARS COV2 : Maximum measured (%)
[4] = IC50 (µM), HTS hits, Suppl. Table 3 Sheet1
[5] = NSP14 SARS COV2 : IC50 (uM), HTS hits, Suppl. Table 3 Sheet2
[6] = Sheet1, NSP14+SAH+compound vs NSP14+SAH
[7] = HTS hits, Suppl. Table 3 Sheet1, read-out: IC50
[8] = HTS hits, Suppl. Table 3 Sheet2, read-out: NSP14 SARS COV2 : IC50

SMILES	Emax (SARS-CoV-2 NSP14 [1]; [3]) [%]	NSP14 SARS COV2 : Hill slope (SARS-CoV-2 NSP14 [1]; HTS hits)	IC50 (SARS-CoV-2 NSP14 [1]; [4]) [µM]	IC50 (SARS-CoV-2 NSP14 [1]; [5]) [µM]	∆TM (°C) (SARS-CoV-2 NSP14 [2]; [6])	∆TM (°C) (SARS-CoV-2 NSP14 [2]; Sheet2, compound + SAH vs SAH)	Average Tm NSP14 (ºC) + compound + SAH (SARS-CoV-2 NSP14 [2])	IC50 (SARS-CoV-2 NSP14 [1]; [7]) [µM]	IC50 (SARS-CoV-2 NSP14 [1]; [8]) [µM]	IC50 (SARS-CoV-2 NSP14 [1]; LUM % inhibition, read-out: SARS-CoV-2 NSP14 inhibition: IC50) [µM]	Emax (SARS-CoV-2 NSP14 [1]; LUM % inhibition, read-out: SARS-CoV-2 NSP14 inhibition: Maximum response) [%]	SARS-CoV-2 NSP14 inhibition: Hill slope (SARS-CoV-2 NSP14 [1]; SBVS hits)	SARS-CoV-2 NSP14 inhibition: Hill slope (SARS-CoV-2 NSP14 [1]; fit of concentration-response curve)	IC50 (SARS-CoV-2 NSP14 [1]; n = 3, read-out: IC50 for the inhibition of SARS-CoV-2 NSP14 (95% CI)) [µM]	TM Replicate 1 (ºC) (NSP14+SAH+cmpd) (SARS-CoV-2 NSP14 [2]; NSP14+SAH 47, SBVS hits)	TM (ºC) (NSP14+compound) (SARS-CoV-2 NSP14 [2]; NSP14 alone 43, SBVS hits)
Cc1cc(OCC(=O)N[C@@H](Cc2ccccc2)C(=O)O)c2c3c(c(=O)oc2c1)CCC3 [RU-0349619, CC1=CC(OCC(=O)N[C@@H](CC2=CC=CC=C2)C(O)=O)=C2C3=C(CCC3)C(=O)OC2=C1]	87.8	0.81	7.84	6.21	2.0	2.0	50.0 ºC	–	–	–	–	–	–	–	–	–
CC(=O)N1CCc2cc(S(=O)(=O)Nc3cccc(Cl)c3C)ccc21 [RU-0121476, S(NC1=C(C)C(Cl)=CC=C1)(C1=CC2=C(N(C(=O)C)CC2)C=C1)(=O)=O]	73.1	1.5	–	–	1.5	1.5	49.5 ºC	4.54	–	–	–	–	–	–	–	–
COc1ccc2oc(C)c(C(=O)Nc3ccc(S(=O)(=O)Nc4onc(C)c4C)cc3)c2c1 [RU-0357296, COC1=CC2=C(OC(C)=C2C(=O)NC2=CC=C(S(=O)(=O)NC3=C(C)C(C)=NO3)C=C2)C=C1]	101	0.746	–	–	6.0	6.0	54.0 ºC	–	0.402	–	–	–	–	–	–	–
O=C(CSc1ncc(S(=O)(=O)c2ccc(Cl)cc2)c(=O)[nH]1)N1CCCc2ccccc21 [RU-0152463, C1(S(C2=CC=C(Cl)C=C2)(=O)=O)=CN=C(SCC(N2C3=C(CCC2)C=CC=C3)=O)NC1=O]	90.3	0.681	–	–	2.5	2.5	50.5 ºC	3.98	–	–	–	–	–	–	–	–
COc1ccc2nc(-c3ccc(NS(=O)(=O)c4ccc5c(c4)CC(=O)N5C)cc3)sc2c1 [RU-0385437, COC1=CC=C2N=C(C3=CC=C(NS(=O)(=O)C4=CC=C5N(C)C(=O)CC5=C4)C=C3)SC2=C1]	92	1.23	–	–	0.8	0.8	48.8 ºC	1.58	1.8	–	–	–	–	–	–	–
Cc1ccc(NS(=O)(=O)c2ccc(-c3coc(C)n3)cc2)c(Br)c1 [RU-0373469, CC1=NC(C2=CC=C(S(=O)(=O)NC3=C(Br)C=C(C)C=C3)C=C2)=CO1]	78.1	0.931	6.42	6.83	1.2	1.2	49.2 ºC	–	–	–	–	–	–	–	–	–
COC(=O)c1ccc(Cl)c(NS(=O)(=O)c2c(C)cc(N3C(=O)CCS3(=O)=O)cc2C)c1 [RU-0347319, COC(=O)C1=CC(NS(=O)(=O)C2=C(C)C=C(N3C(=O)CCS3(=O)=O)C=C2C)=C(Cl)C=C1]	92.8	0.679	–	–	2.8	2.8	50.8 ºC	–	2.84	–	–	–	–	–	–	–
Cc1nc(C)c(C(=O)NCc2ccc(CNC(=O)c3ccc(O)c(F)c3)cc2)nc1C [RU-0834080, CC1=NC(C)=C(C)N=C1C(=O)NCC1=CC=C(CNC(=O)C2=CC(F)=C(O)C=C2)C=C1]	–	–	–	–	–	–	–	–	–	5.82	81.3	1.14	1.14	5.8	48.5 ºC	43 ºC
CCCCc1ccc(S(=O)(=O)c2cnc(SCC(=O)Nc3nccs3)[nH]c2=O)cc1 [RU-0369737, CCCCC1=CC=C(S(=O)(=O)C2=CN=C(SCC(=O)NC3=NC=CS3)NC2=O)C=C1]	79.6	0.954	–	–	1.5	1.5	49.5 ºC	7.1	–	–	–	–	–	–	–	–
Cc1ccc(SCCNC(=O)C2CCN(S(C)(=O)=O)c3cc(C)ccc3O2)cc1 (stereo not shown) [RU-0377187, CC1=CC=C(SCCNC(=O)C2CCN(S(C)(=O)=O)C3=CC(C)=CC=C3O2)C=C1]	83.5	0.583	–	–	1.2	1.2	49.2 ºC	9.3	–	–	–	–	–	–	–	–

Like-named read-outs stand apart in the source and are kept apart here.
